# In all, about 2,900 compounds were measured (“NF-kB SEAP reporter activity, fold change vs agonist alone”: median about 0.99, highest 2% from about 2.6 on). Some of the results follow.
# How the values were obtained:
# RAW-Dual [1] = experiment: NF-kB SEAP reporter activity, fold change vs agonist alone; higher = enhanced NF-kB activity; conditions: library stock concentration (final ~1000-fold dilution): 10 mM
# Summary of the method: (§1)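 Reporter activity is given as fold change relative to agonist-alone wells. To measure it, 50 nL of library stock was pin-tooled onto RAW-Dual macrophages (50,000 cells/well, DMEM, 384-well plates), a PRR agonist followed 1 h later, and cells stayed at 37 °C, 5% CO2. Twenty hours on, supernatant was assayed for IRF (QuantiLuc luminescence) and NF-κB (QuantiBlue, 620 nm absorbance), and wells under 70% of agonist-control IncuCyte confluency in both mask sets were marked cytotoxic.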
# RAW-Dual [2] = experiment: NF-kB SEAP reporter activity, fold change vs agonist alone; cytotoxicity flag (confluency mask): not cytotoxic; higher = enhanced NF-kB activity
# Summary of the method: as §1
# RAW-Dual [3] = experiment: NF-kB SEAP reporter activity, fold change vs agonist alone; cytotoxicity flag (confluency mask): cytotoxic (confluency <70% of control); higher = enhanced NF-kB activity
# Summary of the method: as §1
# [4] = cytotoxicity flag (confluency mask): not cytotoxic, agonist: Imiquimod (TLR7) […]
# [5] = cytotoxicity flag (confluency mask): not cytotoxic, agonist: MPLA (TLR4) […]
# [6] = agonist: ODN 1826 (TLR9) 0.5 ug/mL
# [7] = agonist: Pam2CSK4 (TLR2/6) 0.1 ug/mL
# [8] = agonist: Pam3CSK4 (TLR2/1) 0.1 ug/mL
# [9] = cytotoxicity flag (confluency mask): cytotoxic (confluency <70% of control), agonist: Imiquimod (TLR7) […]
# [10] = cytotoxicity flag (confluency mask): cytotoxic (confluency <70% of control), agonist: MPLA (TLR4) […]
smiles,measurement,setting,value
COc1ccc(S(=O)(=O)N(C(C)=O)c2ccccc2/C=C/c2cc[n+]([O-])cc2)cc1,NF-kB SEAP reporter activity,RAW-Dual [1]; [4],2.17
same,NF-kB SEAP reporter activity,RAW-Dual [1]; [5],1.61
COc1ccc(S(=O)(=O)N(C(C)=O)c2ccccc2/C=C/c2cc[n+]([O-])cc2)cc1 (library stock concentration (final ~1000-fold dilution): 10 mM),NF-kB SEAP reporter activity,RAW-Dual [2]; agonist: LPS (TLR4) 0.1 ug/mL,1.85
same,NF-kB SEAP reporter activity,RAW-Dual [2]; [6],2.59
same,NF-kB SEAP reporter activity,RAW-Dual [2]; [7],1.94
same,NF-kB SEAP reporter activity,RAW-Dual [2]; [8],1.43
O=C1Nc2nc(-c3c(O)cccc3OCC3CC3)cc([C@@H]3CCCNC3)c2CO1,NF-kB SEAP reporter activity,RAW-Dual [1]; [9],0.186
same,NF-kB SEAP reporter activity,RAW-Dual [1]; [10],0.267
O=C1Nc2nc(-c3c(O)cccc3OCC3CC3)cc([C@@H]3CCCNC3)c2CO1 (library stock concentration (final ~1000-fold dilution): 10 mM),NF-kB SEAP reporter activity,RAW-Dual [3]; agonist: LPS (TLR4) 0.1 ug/mL,0.3
same,NF-kB SEAP reporter activity,RAW-Dual [3]; [6],0.204
same,NF-kB SEAP reporter activity,RAW-Dual [3]; [7],0.0719
same,NF-kB SEAP reporter activity,RAW-Dual [3]; [8],0.16
NC1C(O)OC(CO)C(O)C1O (stereo unspecified),NF-kB SEAP reporter activity,RAW-Dual [1]; [4],1.01
same,NF-kB SEAP reporter activity,RAW-Dual [1]; [5],1.08
NC1C(O)OC(CO)C(O)C1O (stereo unspecified) (library stock concentration (final ~1000-fold dilution): 10 mM),NF-kB SEAP reporter activity,RAW-Dual [2]; agonist: LPS (TLR4) 0.1 ug/mL,0.781
same,NF-kB SEAP reporter activity,RAW-Dual [2]; [6],0.917
same,NF-kB SEAP reporter activity,RAW-Dual [2]; [7],0.81
same,NF-kB SEAP reporter activity,RAW-Dual [2]; [8],0.843
O=C(NC(CO)C(O)c1ccc([N+](=O)[O-])cc1)C(Cl)Cl (stereo unspecified) (library stock concentration (final ~1000-fold dilution): 10 mM),NF-kB SEAP reporter activity,RAW-Dual [2]; agonist: LPS (TLR4) 0.1 ug/mL,1.26
same,NF-kB SEAP reporter activity,RAW-Dual [2]; [6],1.08
same,NF-kB SEAP reporter activity,RAW-Dual [2]; [7],1.07
same,NF-kB SEAP reporter activity,RAW-Dual [2]; [8],1.13
O=C(NC(CO)C(O)c1ccc([N+](=O)[O-])cc1)C(Cl)Cl (stereo unspecified),NF-kB SEAP reporter activity,RAW-Dual [1]; [4],0.924
same,NF-kB SEAP reporter activity,RAW-Dual [1]; [5],1.06
Nc1nc(NCCc2ccc(O)cc2)nc2nc(-c3ccco3)nn12 (library stock concentration (final ~1000-fold dilution): 10 mM),NF-kB SEAP reporter activity,RAW-Dual [2]; agonist: LPS (TLR4) 0.1 ug/mL,1.81
same,NF-kB SEAP reporter activity,RAW-Dual [2]; [6],1.56
same,NF-kB SEAP reporter activity,RAW-Dual [2]; [7],1.16
same,NF-kB SEAP reporter activity,RAW-Dual [2]; [8],1.41
Nc1nc(NCCc2ccc(O)cc2)nc2nc(-c3ccco3)nn12,NF-kB SEAP reporter activity,RAW-Dual [1]; [4],1.7
same,NF-kB SEAP reporter activity,RAW-Dual [1]; [5],1.36
O=C(/C=C/c1ccc(CN(CCO)CCc2c[nH]c3ccccc23)cc1)NO (library stock concentration (final ~1000-fold dilution): 10 mM),NF-kB SEAP reporter activity,RAW-Dual [3]; agonist: LPS (TLR4) 0.1 ug/mL,5.57
O=C(/C=C/c1ccc(CN(CCO)CCc2c[nH]c3ccccc23)cc1)NO,NF-kB SEAP reporter activity,RAW-Dual [1]; [9],2.64
same,NF-kB SEAP reporter activity,RAW-Dual [1]; [10],2.71
Cc1nc(-c2cn3c(n2)-c2ccc(-c4cnn(C(C)(C)C(N)=O)c4)cc2OCC3)n(C(C)C)n1 (library stock concentration (final ~1000-fold dilution): 10 mM),NF-kB SEAP reporter activity,RAW-Dual [2]; agonist: LPS (TLR4) 0.1 ug/mL,2.74
same,NF-kB SEAP reporter activity,RAW-Dual [2]; [6],1.31
same,NF-kB SEAP reporter activity,RAW-Dual [2]; [7],0.996
same,NF-kB SEAP reporter activity,RAW-Dual [2]; [8],1.15
Cc1nc(-c2cn3c(n2)-c2ccc(-c4cnn(C(C)(C)C(N)=O)c4)cc2OCC3)n(C(C)C)n1,NF-kB SEAP reporter activity,RAW-Dual [1]; [4],0.619
same,NF-kB SEAP reporter activity,RAW-Dual [1]; [5],1.84
O=c1cc[nH]c(=S)[nH]1 (library stock concentration (final ~1000-fold dilution): 10 mM),NF-kB SEAP reporter activity,RAW-Dual [2]; agonist: LPS (TLR4) 0.1 ug/mL,1.28
same,NF-kB SEAP reporter activity,RAW-Dual [2]; [6],1.03
same,NF-kB SEAP reporter activity,RAW-Dual [2]; [7],1.29
same,NF-kB SEAP reporter activity,RAW-Dual [2]; [8],1.11
O=c1cc[nH]c(=S)[nH]1,NF-kB SEAP reporter activity,RAW-Dual [1]; [4],1.07
same,NF-kB SEAP reporter activity,RAW-Dual [1]; [5],0.995
Cc1nnc(SCC2=C(C(=O)O)N3C(=O)C(NC(=O)Cn4cnnn4)C3SC2)s1 (stereo unspecified) (library stock concentration (final ~1000-fold dilution): 10 mM),NF-kB SEAP reporter activity,RAW-Dual [2]; agonist: LPS (TLR4) 0.1 ug/mL,1.02
same,NF-kB SEAP reporter activity,RAW-Dual [2]; [6],0.981
same,NF-kB SEAP reporter activity,RAW-Dual [2]; [7],1.11
same,NF-kB SEAP reporter activity,RAW-Dual [2]; [8],1.08
Cc1nnc(SCC2=C(C(=O)O)N3C(=O)C(NC(=O)Cn4cnnn4)C3SC2)s1 (stereo unspecified),NF-kB SEAP reporter activity,RAW-Dual [1]; [4],0.943
same,NF-kB SEAP reporter activity,RAW-Dual [1]; [5],1.04
